Experiment [1] deals with T1, endogenous Parkin (mouse (endogenous in iWAT)) (UniProt Q9WVS6).
T1 sequence: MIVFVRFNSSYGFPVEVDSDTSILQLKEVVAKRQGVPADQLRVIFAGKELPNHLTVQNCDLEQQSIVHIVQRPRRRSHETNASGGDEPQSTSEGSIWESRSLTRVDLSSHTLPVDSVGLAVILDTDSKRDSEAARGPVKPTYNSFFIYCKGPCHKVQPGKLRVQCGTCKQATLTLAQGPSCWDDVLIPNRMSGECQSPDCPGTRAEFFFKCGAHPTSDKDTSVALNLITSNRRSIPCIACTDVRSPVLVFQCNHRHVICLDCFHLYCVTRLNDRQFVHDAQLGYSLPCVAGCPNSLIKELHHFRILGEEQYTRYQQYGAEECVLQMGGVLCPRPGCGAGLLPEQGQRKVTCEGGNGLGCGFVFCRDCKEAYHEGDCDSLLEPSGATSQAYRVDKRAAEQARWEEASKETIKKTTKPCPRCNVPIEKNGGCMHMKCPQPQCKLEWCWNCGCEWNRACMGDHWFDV
The experiment can be described thus: co-IP; iWAT total lysates of Pnpla7^Tg mice immunoprecipitated with anti-Parkin or anti-Flag antibodies overnight at 4 °C, protein A/G beads; IP buffer 50 mM Tris-HCl pH 7.5, 1 mM EGTA, 1 mM EDTA, 1% Triton X-100, 150 mM NaCl, 2 mM DTT; immunoblot.

Protein sequences, listed by entry. Tags and fused reporters are not part of them. Lines headed by an entry give the natural chain unless they say otherwise; changes in a name come on top. Residues count along the entry.
UniProt A2AJ88: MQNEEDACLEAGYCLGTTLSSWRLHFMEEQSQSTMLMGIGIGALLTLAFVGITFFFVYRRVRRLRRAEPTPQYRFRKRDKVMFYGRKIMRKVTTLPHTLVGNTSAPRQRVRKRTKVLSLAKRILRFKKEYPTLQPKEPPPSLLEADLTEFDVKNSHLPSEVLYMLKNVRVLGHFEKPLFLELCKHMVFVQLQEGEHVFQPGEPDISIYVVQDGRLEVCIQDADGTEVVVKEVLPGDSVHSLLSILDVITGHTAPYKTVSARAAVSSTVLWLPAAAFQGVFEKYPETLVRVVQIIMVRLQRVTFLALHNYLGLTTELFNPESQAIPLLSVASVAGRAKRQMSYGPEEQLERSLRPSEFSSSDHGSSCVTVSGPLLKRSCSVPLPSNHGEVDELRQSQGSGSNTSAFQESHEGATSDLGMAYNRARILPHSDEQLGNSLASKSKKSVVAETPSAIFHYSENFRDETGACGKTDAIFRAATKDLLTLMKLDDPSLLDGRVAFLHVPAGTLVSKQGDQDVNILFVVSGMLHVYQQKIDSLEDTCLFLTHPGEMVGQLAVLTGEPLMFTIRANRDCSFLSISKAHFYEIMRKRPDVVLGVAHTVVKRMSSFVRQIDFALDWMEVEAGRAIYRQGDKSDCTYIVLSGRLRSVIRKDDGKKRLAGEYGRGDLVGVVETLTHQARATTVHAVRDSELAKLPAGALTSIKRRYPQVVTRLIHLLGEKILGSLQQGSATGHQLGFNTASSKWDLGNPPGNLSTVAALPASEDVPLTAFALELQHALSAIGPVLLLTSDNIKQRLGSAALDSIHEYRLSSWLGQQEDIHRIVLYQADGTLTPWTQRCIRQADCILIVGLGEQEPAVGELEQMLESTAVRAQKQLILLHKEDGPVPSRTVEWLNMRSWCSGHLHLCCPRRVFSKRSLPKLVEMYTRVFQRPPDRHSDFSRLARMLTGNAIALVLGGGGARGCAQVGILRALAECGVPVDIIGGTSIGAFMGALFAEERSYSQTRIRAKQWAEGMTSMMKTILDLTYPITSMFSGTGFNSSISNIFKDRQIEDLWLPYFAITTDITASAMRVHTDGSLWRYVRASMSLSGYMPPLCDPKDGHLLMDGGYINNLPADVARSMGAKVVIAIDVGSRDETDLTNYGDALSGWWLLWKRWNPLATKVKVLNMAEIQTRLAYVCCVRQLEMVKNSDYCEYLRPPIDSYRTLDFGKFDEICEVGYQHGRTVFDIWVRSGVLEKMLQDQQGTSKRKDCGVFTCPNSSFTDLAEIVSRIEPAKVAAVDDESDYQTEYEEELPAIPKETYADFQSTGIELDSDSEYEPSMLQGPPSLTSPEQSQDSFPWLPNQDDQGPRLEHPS
HA-PNPLA7 N-terminal region (aa1-941): residues 1-941 of A2AJ88
HA-PNPLA7 truncation aa36-1352: residues 36-1352 of A2AJ88
HA-PNPLA7 C-terminal region (aa942-1352): residues 942-1352 of A2AJ88

The next experiment concerns the target T2, Flag-Parkin (UniProt Q9WVS6).
T2 sequence: T1 sequence
Put plainly: co-IP; HEK293T cells transfected with Flag-Parkin and HA-PNPLA7 truncations for 48 h; total lysates immunoprecipitated with anti-HA or anti-Flag antibodies; IP buffer 50 mM Tris-HCl pH 7.5, 1% Triton X-100, 150 mM NaCl; immunoblot.

For experiment [2], the target named is T1, endogenous Parkin (mouse (endogenous in iWAT)). The experiment can be described thus: co-IP; lysate of in vitro differentiated inguinal adipocytes of wild-type mice, endogenous proteins; with or without CL 316,243 (1 μM) for 30 min; IP buffer; immunoblot.
For experiment [3] the target is unchanged. The experiment can be described thus: co-IP; iWAT lysate of wild-type mice, endogenous proteins; mice injected with saline or CL 316,243 (1 mg/kg) for 30 min; IP buffer; immunoblot.

Results are given in words; binding and its absence hold for the method and conditions named. Binding seen in cells or lysates may run through a third protein. Some results given as binding are weak or reduced against the parent protein; the word gives no strength. For some of these results: Tags and fused reporters may be left off the sequences shown.

As to “Flag-PNPLA7 (adipose-specific transgene of Pnpla7^Tg mice) (from UniProt A2AJ88 1-1352)”, in experiment [1], the binding result is “binds”.

In the case of “HA-PNPLA7 C-terminal region (aa942-1352) (from UniProt A2AJ88-1 942-1352) (domain or fragment)”, in the experiment with Flag-Parkin, the binding result was “binds”. “HA-PNPLA7 truncation aa36-1352 (from UniProt A2AJ88-1 36-1352) (domain or fragment)”: the binding entry with Flag-Parkin is listed as “binds”. Turning to “endogenous PNPLA7 (from UniProt A2AJ88 1-1352)”, the binding entry in experiment [2] and in experiment [3] was “binds” in each case.

In the case of “HA-PNPLA7 full length (aa1-1352) (from UniProt A2AJ88-1 1-1352)”, in the experiment with Flag-Parkin, the binding entry is on record as “binds”. As to “HA-PNPLA7 N-terminal region (aa1-941) (from UniProt A2AJ88-1 1-941) (domain or fragment)”, in the experiment with Flag-Parkin, the binding result was “no binding”.

Source of the values: PMC12274619.
